Experimental findings from the RNAGym collection of RNA variant scans (doi:10.1093/nar/gkz1192) are described below.

Read counts are not given, so values of variants with three or more changes are uncertain.

To fix the notation:
B1: CPEB3 Ribozyme (parent)
chain: UAACAGGGGGCCACAGCAGAAGCGUUCACGUCGCAGCCCCUGUCAGAUUCUGGUGAAUCUGCGAAUUCUGCUGUAUAUCUC

This data set covers variants of B1. Description: self-cleavage, relative activity (ratio to wild type); higher = more cleavage; in vitro, sequencing. In short, it runs like this: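 For each CPEB3 ribozyme variant, relative activity is its cleaved/total read fraction divided by the unmutated ribozyme's. Barcoded error-prone PCR libraries were transcribed by T7 RNA polymerase (5 hours, 37°C) and held in DNase I for 15 min before an EDTA stop, with cleavage occurring throughout. Template-switching reverse transcription and Illumina sequencing were used to read the RNAs. A 5-read minimum applied, and results are the mean of three batches.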
Regarding A2G U26C A57G U58C U66C, the self-cleavage is 0.

For A2U U31C U41C G53A A57G, the self-cleavage stood at 0.52.

In the case of A2U G52U A56G, the self-cleavage came out at 0.37. Turning to A3G A15G A18G, the self-cleavage is 0.64. As for A2U C27A U41C A47U A65U, the self-cleavage was 0.18. Regarding A3G A15G A21G U58A, the self-cleavage was 0.15.

Consider A2G U25A U26C A47U A75G, for which the self-cleavage was 0.13. Consider A2G G9U A21G U25C A56U U76A, for which the self-cleavage came to 0.06. The same measure for A3C G10C G33U A57U C81U: 0.05; for A2U A3G A13G U25C C34U: 0.41. In the case of A2U U67C U69G A77U, the self-cleavage was 0.25.

On to A3C A28G U41C, for which the self-cleavage amounted to 0.95.

On to A3G A5G A21G U25A U41A U49C U78A, for which the self-cleavage was 0.12. Turning to A2G U51C G70A, the self-cleavage amounted to 0.25. Regarding A2G G36C U51A A65U, the self-cleavage came to 0.06. Take A3G A15G A21G U49C G53C A77G: the self-cleavage was found to be 0.15.

Regarding A3C U51A U60A U78C, the self-cleavage was 0.66.

With A2G C12A U51A U54C A56U, the self-cleavage was found to be 0.24. For the variant A2G G7C A28G, the self-cleavage was determined as 0.08. Take A2G C4U G55A A57C U58C: the self-cleavage was determined as 0.11. With A3C G6A A77G U80A, the self-cleavage worked out at 0.58. In the case of A3G A13U U25C U58C, the self-cleavage was determined as 0.34.

Take A3G A5G C11G U72A: the self-cleavage was 0.44. As to A2G C14A A18G U54C A56U U67C, the self-cleavage stood at 0.12. As for A2U G36C A75U, the figure is 0.06; as for A3G A15G C32G U67A, 0.1; as for A3G A13G U25A G33U U69C U72C, 0.26. On to A2G A21G U31C A45U U69C, for which the self-cleavage was 0.34. A2U A13G U26C U58G: the self-cleavage was 0.26. With A2U C14U A15G U25C A45G A64G, the self-cleavage was 0.09. For A2G A65G U66C U72A U78C U80A, the self-cleavage turned out to be 0.04. As for A2G A35G U67C, the figure is 0.39. With A2U A5U A15G, the self-cleavage was 0.87. For A2G C11A A56G U78A, the self-cleavage came to 0.08. Take A2G G9A U80C: the self-cleavage is 0.09. A2G U25C A45U: the self-cleavage is 0.1.

Regarding A2G G6U U25C U66C, the self-cleavage came to 0.1.

Regarding A2U U41G U67C G70A U74C, the self-cleavage amounted to 0. As to A3G A13G A35U C44U, the self-cleavage amounted to 0.13.

For the variant A3G A5G U25C U72A, the self-cleavage was 0.19. With A2U A3G A18C U80C, the self-cleavage worked out at 0.52.

With A2U G10A A15C A45G, the self-cleavage turned out to be 0.26.

Regarding A2G G6A A21G U49C, the self-cleavage amounted to 0.39. On to A2G C17U A20U A28G A45G U51C U60A, for which the self-cleavage amounted to 0.18. Take A2G C37A U43C A45C U51C: the self-cleavage is 0.07.

A2G U41C U67C U72A: the self-cleavage is 0.11. With A3G A5C C14U U48C U51C A56U A77G, the self-cleavage was determined as 0.23. Take A2G C40G U43C: the self-cleavage worked out at 0.58.

Turning to A2G U26C U69C, the self-cleavage is 0.31. The same measure for A2U A15G A35G A64U U69A U74A U80G: 0.14; for A3G A13U A18U U54G G61C U76A: 0.23; for A3G A13G A15U U41A U49C A64U U66C: 0.38. On to A2G A35G A45U U54A U74A, for which the self-cleavage came to 1.11. A3G A15G G24C U74A: the self-cleavage worked out at 0.14. As for A3G A13G U31C U51G, the figure is 0.68; as for A3G A13U C40U U66C U69C, 0.31; as for A2G A64G C71G U72C, 0.09. As for A2G U26A U80C, the figure is 0.62; as for A2U A5G A35U U72A, 0.54. The same measure for A2G A35G U51A A75U U80C: 1.28; for A2U A20C A45G U66C: 0.07. On to A3G A5U U31C U67C, for which the self-cleavage turned out to be 0.21. A2G A28G C29G U72A: the self-cleavage came to 0.22. Consider A2G A21G U43C, for which the self-cleavage was found to be 0.49.

With A2U G7A C27A U49C, the self-cleavage stood at 0.18.

For A2G A35C A45U G46A U72C, the self-cleavage was determined as 0.09. As for A2G A21G U26G A45G A56U U74C, the self-cleavage was 0.07. Regarding A2G A21G A28G, the self-cleavage worked out at 0.53.

For A3C A18G U51C U69C U80C, the self-cleavage worked out at 1.35. As for A2G C23A U26C A28U A35U U54C, the self-cleavage amounted to 0.05. As to A3G A13G U25A C40A U49C A56U U80G, the self-cleavage was 0.12. Regarding A2G G10C C39A U66A, the self-cleavage is 0.06. Turning to A2G A65G U67C, the self-cleavage was found to be 0.29.

In the case of A2U A15U U41C A65G, the self-cleavage worked out at 0.26. For the variant A2G G6U A21G, the self-cleavage is 0.12. Consider A3C G9U A18U U31C U72C, for which the self-cleavage amounted to 0.08.

For A2G A56G U66G, the self-cleavage was determined as 0.23. On to A2U A13U A15G U41C, for which the self-cleavage came out at 0.86.

Take A2G U25C U41C U51A A57G A75G U80A: the self-cleavage was 0.01.

As to A2G A64G A75G, the self-cleavage was 0.48. For the variant A2G U31C C39U U72A U80C, the self-cleavage was 0.44. As for A2G U26A U58A A64G, the figure is 0.05. For A2G A35G U41C A47U C71A U72A, the self-cleavage came to 0.13.

Turning to A3G A5G A20G A35C U69C, the self-cleavage amounted to 0.43. Regarding A2G A28U U41A U54C, the self-cleavage turned out to be 0.08. The same measure for A2U U74C A75U: 1.1; for A2G C23U U26C U72C: 0.12; for A3G A15G U25C U48C U66C: 0.13. Regarding A2G A28U C40A U43C U72A, the self-cleavage was 0.09. Turning to A2G A28G A56U A75G, the self-cleavage came out at 0.1.

A3G A5U C17G A56G U67C U76C: the self-cleavage worked out at 0.14. A3C A21G U25C U60A: the self-cleavage was determined as 0.39.

As to A2U G52A A77G, the self-cleavage was determined as 1.15. Turning to A2G U26C U31A U41C U51A U67C A77U, the self-cleavage is 0.13. Take A3C U43C U76A: the self-cleavage was 0.71.

Turning to A2G A45U A65G, the self-cleavage turned out to be 0.1. For A3C A20G C44A C50A U74C, the self-cleavage came out at 0.15. On to A3G A5U A35U U69C, for which the self-cleavage was determined as 0.27. In the case of A2U G8U A13U G42A, the self-cleavage was 0.07. Regarding A2G C44U G53A A57U U72C, the self-cleavage is 0.11. For A2G A64G U66C U74C A75G, the self-cleavage turned out to be 0.2. As for A2U A5G U31G A47G U48C, the self-cleavage was 0.32. On to A3G A5G U26C U66C, for which the self-cleavage was determined as 0.12. Turning to A2G C32U U80G, the self-cleavage was determined as 0.37. Take A3G A13G A21C U26A G46A: the self-cleavage was 0.09. The same measure for A3G A13U G22C A35G U43C A75G: 0.08; for A3G A13U G16U U49C C62G U78C: 0.08; for A2U G10A A21U A28U U41A U48C U54G: 0.3.

With A3G A13U A35U A77G, the self-cleavage amounted to 0.84. With A2G A28C U58C U60C, the self-cleavage amounted to 0.31. Take A2G G10C U49C U69C: the self-cleavage came out at 0.05. The same measure for A2U G7U C17U U72C: 0.28; for A3G A5G A35G A47U U49C A64U: 0.19; for A3C U26C U43C G46U: 0.16. For A3G A5G U43C U51G G52A U58A, the self-cleavage turned out to be 0.15. For the variant A3G A13G A35U, the self-cleavage amounted to 0.42. As to A2G C23U A28C U41C C68A, the self-cleavage came out at 0.23. In the case of A3G A13G A35U A47G U69C, the self-cleavage came to 0.47. For A2G U69A U72A A77U, the self-cleavage amounted to 0.1. With A2U A15G U41C U74C, the self-cleavage amounted to 0.81. Consider A2U G30A A56U, for which the self-cleavage was 0.27. In the case of A3C A13C A21U U26C U43G U49C, the self-cleavage was determined as 0.08. The same measure for A3C C50A U72A U74C: 1.24. On to A2U C12U U58C A64U U66C A75G, for which the self-cleavage was found to be 0.14.

Turning to A3G A5G U54C C59U A64G, the self-cleavage was found to be 0.07. Regarding A2G A35G G42A U60A A64C U72G, the self-cleavage amounted to 0.13. For the variant A3G A5U A18G U72C U80C, the self-cleavage is 1.02. For A3C A13G U74C, the self-cleavage was 1.1.

Regarding A2G U43C U58A U80C, the self-cleavage is 0.11. With A2U A21G A35C, the self-cleavage turned out to be 0.12.

For A3G A5U A15G U25C U72C U74C A75G, the self-cleavage is 0.04. For A2U U26A U54C U60A, the self-cleavage was determined as 0.59. Take A3G A13G A21C A28U A45U: the self-cleavage worked out at 0.31.

With A2G G8A A28G C39A A45G G52A, the self-cleavage turned out to be 0.05. Consider A3C U26C U49G C62U U72A U80C, for which the self-cleavage was 0.06. On to A3G A5G U26C C50A U67A U72C, for which the self-cleavage was found to be 0.16.

Regarding A3G A13G G19U A35G A75G, the self-cleavage was 0.09. Take A2G G8U A20G C62G C81G: the self-cleavage is 0.06. With A2G A21C U72C, the self-cleavage was found to be 0.14. The same measure for A2G C34A A35U: 0.25.

Take A2G C23U U25A U51A: the self-cleavage worked out at 0.24. The same measure for A2U C12U U26A: 1.2. As to A2U C27A A35G A45G, the self-cleavage was 0.18.

As for A2U A21G U26C U54A, the self-cleavage worked out at 0.14.

For A2U A3G A35U A45C U67C A75G, the self-cleavage was 0.05. As for A3G A13G C50U U67C U78C C79U, the self-cleavage is 0.14. Turning to A3G A13C A64G A75G, the self-cleavage turned out to be 0.97. The same measure for A3G A13U A35U: 0.24; for A2U C12U A47U U58C U60C A64U: 0.08. As to A2U A20U A28G U51C A57G A75G, the self-cleavage is 0.1.

On to A2G G19U U25C U41A, for which the self-cleavage worked out at 0.07. Consider A2G A28G U43G, for which the self-cleavage worked out at 0.33. With A2G G8A A28G U41A A75U, the self-cleavage worked out at 0.06.

On to A2U A3U G7A G53U U58C, for which the self-cleavage came to 0.39. Turning to A3G A5G A13U A28U U54C, the self-cleavage came to 0.68.

A3G A15G U31C U69C A77G: the self-cleavage amounted to 0.22. Take A2G U76A A77G: the self-cleavage worked out at 0.63. In the case of A2G A75G U80C, the self-cleavage came to 0.48. Consider A3G A13G A21G U26C C29U U72C, for which the self-cleavage is 0.05. The same measure for A2G C11G U43C C62A: 0.09; for A3C A15G A28G A45G: 0.48; for A2U G8C G36U U60C: 0.06. In the case of A3C G16C U48G C59A, the self-cleavage was found to be 0.33. In the case of A2G A28G A45G U67C, the self-cleavage is 0.3. For A3C A5G U41A A77G, the self-cleavage was 0.17.

Regarding A3G A5U C23U A35G A57G C59A, the self-cleavage worked out at 0.14.

On to A3G A13U A28U A35G A65C A77G, for which the self-cleavage turned out to be 0.23.
